Test results taken from PubChem BioAssay (Tox21).
Several values for one entry are separate records, joined by “and”; a condition that tells them apart may be missing. Equal entries are not always repeated. Inconclusive results, whose numbers are uncertain, are shown with a selection of clear calls. For part of these data: Where the call is inconclusive, the potency comes from a doubtful curve fit. The source holds several records for some structures; these can differ, active in one and inactive in another. Activity calls are given as the source filed them. Unless noted, calls come from the whole dose curve; as a rule, active = well fitted curve in the direction sought with a large enough effect in the repeat runs; inconclusive = weak or mixed curves; inactive = no such curve, though single readings can be large; an effect the other way counts as inactive or inconclusive.

Columns and labels:
[1] = qHTS assay to identify small molecule antagonists of the androgen receptor (AR) signaling pathway using the MDA cell line in the presence of 0.5 nM R1881 - cell viability counter screen (AID 1259242); note: nearly all actives have a fitted effect of over 45% in size; note: potency is the fitted concentration of half-maximal effect
How it was run: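 Concentration-response screen of compounds for toxicity in MDA-kb2 reporter cells: 16 hr at 37C with 0.5 nM R1881, endpoint live-cell protease fluorescence measured in the reporter wells.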

[2] = qHTS assay to identify small molecule HDAC inhibitors (AID 1259364);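 note: wild-type HCT-116 cells with endogenous class I/II HDAC activity; potency is the fitted concentration of half-maximal effect; nearly all actives have a fitted effect of over 45% in size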
How it was run: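 Screening used wild-type human colon HCT-116 cells incubated overnight, dosed with compounds for 2 hours, and assayed with a homogeneous luminogenic HDAC I/II reagent for 30 minutes at room temperature.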

[3] = qHTS assay to identify small molecule agonists of the sonic hedgehog signaling (Shh) pathway - cell viability counter screen (AID 1259366); note: potency is the fitted concentration of half-maximal effect; nearly all actives have a fitted effect of over 50% in size
How it was run: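 Compounds in DMSO were pin-transferred onto 3T3 Gli1-Luc cells that had settled 4hr; plates then stood 24hr at 37C and 5% CO2. One hour before the end, CellTiter-Fluor was added and fluorescence recorded.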

[4] = qHTS assay to identify small molecule antagonists of the sonic hedgehog signaling (Shh) pathway - cell viability counter screen (AID 1259367); note: nearly all actives have a fitted effect of over 55% in size; note: potency is the fitted concentration of half-maximal effect
How it was run: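 Cytotoxicity was assessed in parallel with Shh reporter activity by measuring live-cell protease fluorescence (CellTiter-Fluor) in NIH/3T3 cells stably carrying Gli1-Luc, treated with compound under conditioned medium stimulation for 23 hr plus 1 hr reagent incubation.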

[5] = qHTS assay to identify small molecule antagonists of the sonic hedgehog signaling (Shh) pathway (AID 1259369; calls by dose curve; note: potency is the fitted concentration of half-maximal effect; nearly all actives have a fitted effect of over 45% in size)
How it was run: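 NIH/3T3 stable Gli1-Luc clone, 2,000 cells/well, 4hr settle; cpd + conditioned medium 24hr; Luc reagent 30min RT; luminescence.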

[6] = target: Androgen receptor (Homo sapiens) (UniProt P10275); assay: qHTS assay to identify small molecule antagonists of the androgen receptor (AR) signaling pathway using the MDA cell line in the presence of 0.5 nM R1881 (AID 1259243); note: nearly all actives have a fitted effect of over 50% in size; note: potency is the fitted concentration of half-maximal effect; for activity, negative = inhibition: % is set by controls: 0 for no effect and ±100 for the full control effect
How it was run: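 With R1881 held at 0.5 nM (final), compound effects on MMTV-luciferase expression in MDA-kb2 cells were scored by luminescence after a 16 hr, 37C incubation.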

[7] = qHTS assay to identify small molecule agonists of the androgen receptor (AR) signaling pathway in the presence of an antagonist - cell viability counter screen (AID 1259379); note: potency is the fitted concentration of half-maximal effect; nearly all actives have a fitted effect of over 25% in size
How it was run: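 MDA-kb2 viability measured by CellTiter-Fluor fluorescence in the same wells as the luciferase signal; nilutamide 3.0uM final; 15-point compound titration; 16 hr at 37C.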

[8] = qHTS assay to identify small molecule agonists of the sonic hedgehog signaling (Shh) pathway (AID 1259368; calls by dose curve;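 note: NIH/3T3-derived 3T3Gli1-Luc cells carrying a stable Gli1-driven firefly luciferase reporter; % is set by controls: 0 for no effect and ±100 for the full control effect; nearly all actives have a fitted effect of over 15% in size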)
How it was run: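 Hedgehog pathway agonism scored by increased firefly luciferase luminescence in 3T3Gli1-Luc cells treated 24 hr at 37 C; detection used a 30 min room-temperature reagent incubation.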

[9] = target: Estrogen receptor beta (Homo sapiens) (UniProt Q92731); assay: qHTS assay to identify small molecule agonists of the estrogen receptor beta (ER-beta) signaling pathway (AID 1259377; active = well fitted activation curve with a large enough effect in the signal ratio in the repeat runs, not every such curve was filed as active; inconclusive = weak or mixed curves, or effect the other way; the % refers to the signal ratio; note: potency is the fitted concentration of half-maximal effect; for activation: % is set by controls: 0 for no effect and ±100 for the full control effect); settings: ER-beta-UAS-bla HEK293T, beta-lactamase FRET ratio, 16 h; activation: at 92.4 µM (top of the series) unless noted
How it was run: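 qHTS in ER-beta-UAS-bla HEK293T cells: 6 hr settling, then 16 hr compound at 37C, then LiveBLAzer substrate 2 h at RT before fluorescence reading.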

[10] = target: Estrogen receptor beta (Homo sapiens) (UniProt Q92731); assay: qHTS assay to identify small molecule antagonists of the estrogen receptor beta (ER-beta) signaling pathway (AID 1259378; active = well fitted inhibition curve with a large enough effect in the signal ratio in the repeat runs, not every such curve was filed as active; inconclusive = weak or mixed curves, or effect the other way; inactive = no such curve, though single readings can be large or run the other way; the % refers to the signal ratio; note: potency is the fitted concentration of half-maximal effect; for activity, negative = inhibition: % is set by controls: 0 for no effect and ±100 for the full control effect); settings: ER-beta-UAS-bla HEK293T, beta-lactamase FRET ratio, 16 h; activity, negative = inhibition: at 92.4 µM (top of the series) unless noted
How it was run: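 ER-beta-UAS-bla HEK293T (GripTite) cells in 2% charcoal-stripped FBS medium were preincubated 6 hr at 37C, dosed with compound, then stimulated with 1 nM E2 (final) for 16 hr; beta-lactamase reporter read by B/G FRET fluorescence after 2 hr substrate loading.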

[11] = qHTS assay to identify small molecule agonists of the estrogen receptor beta (ER-beta) signaling pathway - cell viability counter screen (AID 1259380); note: potency is the fitted concentration of half-maximal effect; nearly all actives have a fitted effect of over 30% in size
How it was run: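 Measured: luminescence from CellTiter-Glo after 30 min at room temperature, added to wells already read for the LiveBLAzer FRET reporter (2 hr substrate); ER-beta-UAS-bla HEK293T cells had 16 hr compound treatment at 37C, 5% CO2.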

[12] = qHTS assay to identify small molecule phospholipidosis (PLD) inducers (AID 1259344; active = well fitted curve in the direction sought with a large enough effect; inconclusive = small, poorly fitted or top-dose-only effect, or another doubt; inactive = no such curve, though single readings can be large; an effect the other way counts as inactive or inconclusive; note: potency is the fitted concentration of half-maximal effect)
How it was run: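 Cells (HepG2, 900 per well) attach for 4 h, receive LipidTOX Red and compound together, incubate 24 h at 37 C, are fixed 30 min with paraformaldehyde/Hoechst, then imaged at one site per well.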

[13] = target: Estrogen receptor (Homo sapiens) (UniProt P03372); assay: qHTS assay to identify small molecule antagonists of the estrogen receptor alpha (ER-alpha) signaling pathway using the BG1 cell line in the presence of 0.1 nM 17-beta-estradiol (AID 1259244); note: potency is the fitted concentration of half-maximal effect; nearly all actives have a fitted effect of over 50% in size
How it was run: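 Compounds were tested against 0.1 nM (final) 17beta-estradiol in VM7Luc4E2 cells, which express full-length ER-alpha and an ERE-luciferase reporter; luminescence was recorded following 22 h exposure.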

[14] = qHTS assay to identify small molecule antagonists of the estrogen receptor beta (ER-beta) signaling pathway - cell viability counter screen (AID 1259382); note: nearly all actives have a fitted effect of over 55% in size; note: potency is the fitted concentration of half-maximal effect
How it was run: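 Readout: luminescence, CellTiter-Glo, same wells as bla assay. System: ER-beta-UAS-bla GripTite HEK293T, 2% charcoal-stripped FBS. Exposure: compounds plus 1nM 17-beta-estradiol, 16 hr, 37C.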

[15] = qHTS assay to identify small molecule HDAC inhibitors - cell viability counter screen (AID 1259365); note: potency is the fitted concentration of half-maximal effect; nearly all actives have a fitted effect of over 50% in size
How it was run: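 HCT-116 wild-type, overnight attachment; 2hr drug exposure, 37C; CellTiter-Glo luminescent ATP readout after 30min RT.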
Tags give direction and shape of the fitted curve or compound fluorescence and quenching.

Chain of UniProt P10275 (P10275 whole entry, looked up): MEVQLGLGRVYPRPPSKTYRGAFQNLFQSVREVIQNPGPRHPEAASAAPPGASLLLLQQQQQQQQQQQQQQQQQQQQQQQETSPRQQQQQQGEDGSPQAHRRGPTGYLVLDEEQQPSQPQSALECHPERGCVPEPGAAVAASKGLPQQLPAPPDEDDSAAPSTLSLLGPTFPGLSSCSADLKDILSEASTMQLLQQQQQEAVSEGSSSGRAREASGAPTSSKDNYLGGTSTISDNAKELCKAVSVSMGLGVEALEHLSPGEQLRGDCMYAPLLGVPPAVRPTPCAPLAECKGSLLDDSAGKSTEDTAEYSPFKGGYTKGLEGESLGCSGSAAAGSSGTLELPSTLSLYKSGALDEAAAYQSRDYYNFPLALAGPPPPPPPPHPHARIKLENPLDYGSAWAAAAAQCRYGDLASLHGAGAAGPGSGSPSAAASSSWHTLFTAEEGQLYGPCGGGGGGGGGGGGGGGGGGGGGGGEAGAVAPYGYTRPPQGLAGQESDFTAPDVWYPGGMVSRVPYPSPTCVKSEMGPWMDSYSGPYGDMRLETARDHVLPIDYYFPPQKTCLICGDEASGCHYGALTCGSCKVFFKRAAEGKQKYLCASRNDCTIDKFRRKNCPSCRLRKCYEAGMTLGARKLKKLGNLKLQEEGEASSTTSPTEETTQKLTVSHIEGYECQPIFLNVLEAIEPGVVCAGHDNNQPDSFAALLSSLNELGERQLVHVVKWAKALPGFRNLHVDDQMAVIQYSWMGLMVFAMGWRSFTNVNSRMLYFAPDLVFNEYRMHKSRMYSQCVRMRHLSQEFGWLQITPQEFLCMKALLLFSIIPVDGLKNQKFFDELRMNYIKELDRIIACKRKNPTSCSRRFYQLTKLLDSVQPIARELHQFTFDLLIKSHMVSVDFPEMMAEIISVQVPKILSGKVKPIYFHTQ
Chain of UniProt Q92731 (Q92731 whole entry, looked up): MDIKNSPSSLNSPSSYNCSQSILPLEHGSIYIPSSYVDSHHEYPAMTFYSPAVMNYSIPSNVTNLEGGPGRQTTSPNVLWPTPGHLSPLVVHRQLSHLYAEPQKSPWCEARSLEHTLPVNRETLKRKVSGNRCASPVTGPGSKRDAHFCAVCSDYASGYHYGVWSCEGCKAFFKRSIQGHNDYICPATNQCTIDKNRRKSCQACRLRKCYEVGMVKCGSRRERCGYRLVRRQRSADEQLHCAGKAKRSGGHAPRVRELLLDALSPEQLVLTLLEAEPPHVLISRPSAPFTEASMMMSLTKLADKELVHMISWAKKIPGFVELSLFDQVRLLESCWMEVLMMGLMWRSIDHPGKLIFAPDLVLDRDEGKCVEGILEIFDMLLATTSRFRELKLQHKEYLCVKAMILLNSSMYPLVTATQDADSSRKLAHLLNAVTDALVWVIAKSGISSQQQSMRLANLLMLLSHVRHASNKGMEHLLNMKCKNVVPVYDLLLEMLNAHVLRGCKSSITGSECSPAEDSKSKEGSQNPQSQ
Chain of UniProt P03372 (P03372 whole entry, looked up): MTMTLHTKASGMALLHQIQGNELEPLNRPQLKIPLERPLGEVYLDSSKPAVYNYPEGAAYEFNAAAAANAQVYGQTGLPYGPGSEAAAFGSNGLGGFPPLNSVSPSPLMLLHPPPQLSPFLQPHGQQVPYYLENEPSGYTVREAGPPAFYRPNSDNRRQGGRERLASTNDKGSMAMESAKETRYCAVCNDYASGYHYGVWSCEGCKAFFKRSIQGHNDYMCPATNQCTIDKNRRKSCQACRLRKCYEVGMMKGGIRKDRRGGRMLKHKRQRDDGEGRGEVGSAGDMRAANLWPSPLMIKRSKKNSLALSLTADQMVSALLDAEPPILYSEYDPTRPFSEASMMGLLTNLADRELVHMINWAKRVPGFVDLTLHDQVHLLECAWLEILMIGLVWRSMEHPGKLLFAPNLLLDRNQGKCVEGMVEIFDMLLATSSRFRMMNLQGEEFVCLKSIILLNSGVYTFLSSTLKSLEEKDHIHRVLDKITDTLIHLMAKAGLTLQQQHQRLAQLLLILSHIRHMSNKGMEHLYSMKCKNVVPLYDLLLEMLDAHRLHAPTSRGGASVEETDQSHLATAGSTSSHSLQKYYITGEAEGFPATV

Question: What does the source list for `CCC1OCC(COc2ccc(Oc3ccccc3)cc2)O1` (stereo not drawn)?
Answer: Potency [1]: inactive; Potency [2]: active: 17.2 µM; Potency [3]: inconclusive: 68.6 µM [cytotoxic, single point]; Potency [4]: active: 61.1 µM; Potency [5]: inconclusive: 30.6 µM [inhibitor, full curve, poor fit]

Question: What does the source list for `CCOC(=O)N1CCC(n2c(=O)[nH]c3cc(Cl)ccc32)CC1`?
Answer: Potency [1]: inconclusive: 29.8 µM [cytotoxic, single point]; Potency [6]: active: 21.1 µM; Potency [5]: inconclusive: 9.44 µM [inhibitor, partial curve]; Potency [7]: active: 29.8 µM

Question: For `Cc1cc2c(cc1C(F)(F)F)N(C(=O)Nc1ccc(Oc3cccnc3C)nc1)CC2`, which Potency [1] is on record?
Answer: inconclusive: 62 µM [cytotoxic, single point]

Question: And the Potency [8]?
Answer: inactive

Question: What about the Potency [5] of the same molecule?
Answer: inconclusive: 7.81 µM [inhibitor, full curve]

Question: And the Potency [9]?
Answer: inconclusive: 69.6 µM [activator]

Question: And the Potency [10]?
Answer: active: 19.6 µM

Question: And the Potency [7]?
Answer: active: 55.3 µM

Question: And the Potency [11]?
Answer: inconclusive: 4.93 µM [cytotoxic, full curve]

Question: With `CNCCCN1c2ccccc2CCc2ccccc21` as the molecule, how does the Potency [1] read?
Answer: inconclusive: 33.5 µM [cytotoxic, single point]

Question: And the Potency [6]?
Answer: inconclusive: 33.5 µM [inhibitor, single point]

Question: What about the Potency [12] of the same molecule?
Answer: inconclusive: 6.31 µM [activator, partial curve, poor fit]

Question: What about the Potency [3] of the same molecule?
Answer: inconclusive: 18.8 µM [cytotoxic, partial curve]

Question: And the Potency [4]?
Answer: inconclusive: 5.31 µM [cytotoxic, full curve, poor fit]

Question: And the Potency [5]?
Answer: active: 5.96 µM

Question: And the Potency [7]?
Answer: inconclusive: 33.5 µM [cytotoxic, single point]

Question: Which Potency [1] does the source give for `COc1cc2c(c(OC)c1OC)-c1ccc(OC)c(=O)cc1[C@@H](NC(C)=O)CC2` here?
Answer: inconclusive: 85.3 µM [cytotoxic, single point]

Question: And the Potency [6]?
Answer: inconclusive: 67.8 µM [inhibitor, single point] and inactive

Question: What about the Potency [13] of the same molecule?
Answer: inconclusive: 54.5 nM [inhibitor, full curve] and inconclusive: 29.8 nM [inhibitor, full curve]

Question: And the Potency [12]?
Answer: active: 0.708 µM

Question: What about the Potency [5] of the same molecule?
Answer: inconclusive: 13.5 nM [inhibitor, full curve] and active: 1.7 nM and active: 2.4 nM

Question: What about the Potency [9] of the same molecule?
Answer: inconclusive: 30.3 µM [rising, partial curve]

Question: What about the activity, negative = inhibition [10] of the same molecule?
Answer: inconclusive: -27%

Question: What about the Potency [7] of the same molecule?
Answer: inconclusive: 0.24 µM [cytotoxic, full curve]

Question: What about the Potency [14] of the same molecule?
Answer: inactive

Question: Which results are given for `CCCCCCCCCCCCCCCC[N+](C)(C)CC`?
Answer: Potency [1]: inconclusive: 24.4 µM [cytotoxic, full curve] and inconclusive: 18.8 µM [cytotoxic, partial curve]; Potency [15]: inconclusive: 61.3 µM [cytotoxic, single point]; Potency [3]: inconclusive: 33.5 µM [cytotoxic, partial curve, poor fit]; Potency [4]: active: 54.6 µM and inactive; Potency [7]: active: 48.7 µM and active: 18.8 µM; Potency [11]: active: 54.6 µM and active: 11.9 µM

Question: Which Potency [1] does the source give for `CCCCOc1ccc(C(=O)CCN2CCCCC2)cc1` here?
Answer: inconclusive: 23.7 µM [cytotoxic, partial curve]

Question: What about the Potency [12] of the same molecule?
Answer: inactive

Question: And the Potency [3]?
Answer: inconclusive: 33.5 µM [cytotoxic, partial curve, poor fit]

Question: And the Potency [9]?
Answer: inactive

Question: And the Potency [11]?
Answer: inconclusive: 4.73 µM [cytotoxic, full curve]

Question: With `C=C(C)C(=O)OCC(O)COc1ccc(C(C)(C)c2ccc(OCC(O)COC(=O)C(=C)C)cc2)cc1` (stereo not drawn) as the molecule, how does the Potency [1] read?
Answer: inconclusive: 19.3 µM [cytotoxic, full curve]

Question: And the Potency [4]?
Answer: inconclusive: 68.6 µM [cytotoxic, single point]

Question: And the Potency [9]?
Answer: inconclusive: 68.6 µM [single point]

Question: What about the Potency [10] of the same molecule?
Answer: inconclusive: 61.1 µM [inhibitor]

Question: And the Potency [14]?
Answer: inconclusive: 61.1 µM [cytotoxic]
